The subject of this assay is V-C8 + BRCA2 (BRCA2-proficient hamster cells). Put plainly: normalised cell viability (fraction of plate median); higher = more viable cells (less toxic). The note with it: 5 µM. An outline of the steps:
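In two screens, library drugs at 5 μM were given for 3 days (screen 1) or 6 days (screen 2) to hamster V-C8 cells without BRCA2 and V-C8 cells with BRCA2 restored, seeded 24 h earlier in 96-well plates. A resazurin assay gave the cell viability readout, expressed as modified robust per cent of sample against the plate median, with triplicate wells averaged.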

The structures appear in SMILES notation. Structures can show the parent of a compound that is named as a salt. ± gives the standard deviation of the averaged measurements. In all, about 1,300 compounds were measured (“normalised cell viability”: median about 1, lowest 2% from about 0.15 on). Some of the results follow.

With `CNCCCC1c2ccccc2C=Cc2ccccc21` [Protriptyline hydrochloride], the normalised cell viability is 0.942 ± 0.063 (treatment time: 3 days) and 0.966 ± 0.089 (treatment time: 6 days).
Taken in the same sequence, the figures for `C[C@]12CCC(=O)C=C1CC[C@@H]1[C@@H]2[C@@H](O)C[C@@]2(C)[C@H]1CC[C@]2(O)C(=O)CO` [Hydrocortisone base] were 1.06 ± 0.031 and 1.07 ± 0.17.
Taken in the same sequence, the figures for `CN[C@@H]1[C@H](O[C@H]2[C@H](O[C@H]3[C@H](O)[C@@H](O)[C@H](N=C(N)N)[C@@H](O)[C@@H]3N=C(N)N)O[C@@H](C)[C@]2(O)C=O)O[C@@H](CO)[C@H](O)[C@H]1O` [Streptomycin sulfate] were 1.02 ± 0.021 and 1.15 ± 0.08.
In the case of `Nc1nc(Cl)nc2c1ncn2[C@H]1C[C@H](O)[C@@H](CO)O1` [Cladribine], the normalised cell viability runs as follows: (treatment time: 3 days) 0.162 ± 0.0053; (treatment time: 6 days) 0.165 ± 0.011.
In the same order, the values of `OCCOCCN1CCN(C2=Nc3ccccc3Sc3ccccc32)CC1` [Quetiapine] are 1.065 ± 0.0087 and 1.12 ± 0.023.
In the same order, the values of `CCC(=O)O[C@@H](O[P@](=O)(CCCCc1ccccc1)CC(=O)N1C[C@H](C2CCCCC2)C[C@H]1C(=O)O)C(C)C` [Fosinopril] are 1.04 ± 0.051 and 1.06 ± 0.021.
Turning to `COc1cccc2c1C(=O)c1c(O)c3c(c(O)c1C2=O)C[C@@](O)(C(=O)CO)C[C@@H]3O[C@H]1C[C@H](N)[C@H](O)[C@H](C)O1` [Doxorubicin hydrochloride], the normalised cell viability by setting is: (treatment time: 3 days) 0.12 ± 0.0088; (treatment time: 6 days) 0.122 ± 0.0099.
In the same order, the values of `CC1(C)S[C@@H]2[C@H](NC(=O)[C@H](N)c3ccc(O)cc3)C(=O)N2[C@H]1C(=O)O` [Amoxicillin] are 1.17 ± 0.094 and 0.971 ± 0.091.
In the same order, the values of `CCCCC(=O)O[C@H]1CC[C@H]2[C@@H]3CCc4cc(O)ccc4[C@H]3CC[C@]12C` [Estradiol Valerate] are 1.17 ± 0.33 and 1.12 ± 0.24.
In the same order, the values of `N=C(N)c1ccc(OCCCCCOc2ccc(C(=N)N)cc2)cc1` [Pentamidine isethionate] are 0.898 ± 0.076 and 0.844 ± 0.11.
`Fc1ccc(C(c2ccc(F)cc2)N2CCN(C/C=C/c3ccccc3)CC2)cc1` [Flunarizine dihydrochloride]: the normalised cell viability by setting is: (treatment time: 3 days) 0.932 ± 0.058; (treatment time: 6 days) 0.931 ± 0.015.
Taken in the same sequence, the figures for `Cc1oncc1C(=O)Nc1ccc(C(F)(F)F)cc1` [Leflunomide] were 1.01 ± 0.062 and 0.988 ± 0.032.
Taken in the same sequence, the figures for `COc1ccc(C(Cl)=C(c2ccc(OC)cc2)c2ccc(OC)cc2)cc1` [Chlorotrianisene] were 1.06 ± 0.02 and 1.16 ± 0.31.
In the case of `O=C(O)c1cccnc1Nc1cccc(C(F)(F)F)c1` [Niflumic acid], the normalised cell viability by setting is: (treatment time: 3 days) 1.04 ± 0.027; (treatment time: 6 days) 1.03 ± 0.034.
In the same order, the values of `CC(CCc1ccccc1)NCC(O)c1ccc(O)c(C(N)=O)c1` (centres undefined) [Labetalol hydrochloride] are 1.04 ± 0.022 and 1.02 ± 0.012.
In the same order, the values of `CCOC(=O)[C@H](CCc1ccccc1)N[C@@H](C)C(=O)N1Cc2ccccc2C[C@H]1C(=O)O` [Quinapril HCl] are 0.9969 ± 0.0022 and 0.954 ± 0.092.
Taken in the same sequence, the figures for `CN1C(C)(C)CCCC1(C)C` [Pempidine tartrate] were 1.1 ± 0.035 and 1.007 ± 0.0034.
`Cc1onc(-c2c(Cl)cccc2Cl)c1C(=O)N[C@@H]1C(=O)N2[C@@H]1SC(C)(C)[C@@H]2C(=O)O` [Dicloxacillin sodium salt hydrate]: the normalised cell viability by setting is: (treatment time: 3 days) 1.04 ± 0.073; (treatment time: 6 days) 0.953 ± 0.029.
Taken in the same sequence, the figures for `CN(C)/N=N/c1[nH]cnc1C(N)=O` [Dacarbazine] were 1 ± 0.022 and 0.992 ± 0.052.
In the same order, the values of `C[N+](C)(C)CCCCCC[N+](C)(C)C` [Hexamethonium dibromide dihydrate] are 1.06 ± 0.019 and 0.993 ± 0.059.
Taken in the same sequence, the figures for `CC[N+](C)(C)Cc1ccccc1Br` [Bretylium tosylate] were 0.9932 ± 0.0068 and 0.977 ± 0.013.
As for `Cc1cc2c(cc1S(N)(=O)=O)S(=O)(=O)CCC2` [Meticrane], the normalised cell viability is, setting by setting: (treatment time: 3 days) 1.01 ± 0.018; (treatment time: 6 days) 0.997 ± 0.045.
In the same order, the values of `NCCNCCNCCNCCN` [Tetraethylenepentamine pentahydrochloride] are 0.972 ± 0.03 and 1.01 ± 0.024.
In the same order, the values of `Clc1cnccn1` [2-Chloropyrazine] are 1.02 ± 0.036 and 1.02 ± 0.071.
In the same order, the values of `COC(=O)Nc1nc2cc(C(=O)c3ccccc3)ccc2[nH]1` [Mebendazole] are 0.163 ± 0.013 and 0.151 ± 0.0072.
Consider `CC1(C)S[C@@H]2[C@H](NC(=O)[C@H](NC(=O)N3CCNC3=O)c3ccccc3)C(=O)N2[C@H]1C(=O)O` [Azlocillin sodium salt], for which the normalised cell viability amounted to 0.986 ± 0.02 (treatment time: 3 days) and 0.758 ± 0.17 (treatment time: 6 days).
As to `CC(C)c1ccc2oc3nc(N)c(C(=O)O)cc3c(=O)c2c1` [Amlexanox], the normalised cell viability is, setting by setting: (treatment time: 3 days) 1.04 ± 0.021; (treatment time: 6 days) 1.03 ± 0.071.
Taken in the same sequence, the figures for `CSc1ccc2c(c1)C(N1CCN(C)CC1)Cc1ccccc1S2` (centres undefined) [Methiothepin maleate] were 0.79 ± 0.056 and 0.783 ± 0.02.
In the same order, the values of `CC(C(=O)O)c1ccc2c(c1)Cc1cccnc1O2` (centres undefined) [Pranoprofen] are 1.23 ± 0.031 and 1.03 ± 0.057.
In the same order, the values of `Cc1c(C)c2c(c(C)c1O)CCC(C)(COc1ccc(CC3SC(=O)NC3=O)cc1)O2` (centres undefined) [Troglitazone] are 0.748 ± 0.0081 and 0.709 ± 0.054.
For the molecule `COC(c1ccccc1)(c1ccccc1)[C@H](Oc1nc(C)cc(C)n1)C(=O)O` [Ambrisentan], the normalised cell viability runs as follows: (treatment time: 3 days) 1.02 ± 0.066; (treatment time: 6 days) 1.14 ± 0.086.
Taken in the same sequence, the figures for `COc1ccc([C@@H]2CC(=O)c3c(O)cc(O[C@@H]4O[C@H](CO[C@@H]5O[C@@H](C)[C@H](O)[C@@H](O)[C@H]5O)[C@@H](O)[C@H](O)[C@H]4O)cc3O2)cc1O` [Hesperidin] were 1 ± 0.04 and 1.05 ± 0.086.

For the origin of these results see the supplement of paper PMC6609913.
